The supplement of paper PMC8007513
Counter-ions that a name gives are not always drawn. ± gives the standard error. Out of some 1,300 compounds screened, about 75 (6%) showed an effect of 50% or more. Some of the results follow.

Test system: Trichoderma virens ATCC 9645
Assay: growth yield (OD600) relative to untreated control; higher = less growth inhibition
Conditions: compound concentration: 100 uM
In short: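 Trichoderma virens ATCC 9645 spores, from potato dextrose agar plates grown for 7 days, were brought to 15,000 spores ml^−1 in potato dextrose broth and dispensed as 100 μl aliquots into 96-well plates. Each aliquot received library compounds at 100 μM final, with or without a biocide at 200 ng ml^−1, before growth at 30 °C and OD600 readings on a BioTek EL800 at 40 h and 72 h. Growth is expressed relative to the control containing neither agent and represents means of duplicate screens.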

Row | SMILES | growth yield (40 h) | growth yield (72 h)
1 | O=C(CCCCC(=O)Nc1c(I)cc(I)c(C(=O)O)c1I)Nc1c(I)cc(I)c(C(=O)O)c1I [Iodipamide] | 103 ± 1.1% | 101.6 ± 0.32%
2 | CC(C)(C)NCC(O)COc1cccc2c1CC(O)C(O)C2 (configuration not stated) [Nadolol] | 105 ± 4.1% | 100 ± 2.6%
3 | CCOCCn1c(N2CCCN(C)CC2)nc2ccccc21 [Emedastine] | 98.96 ± 0.16% | 96.9 ± 2.7%
4 | CC[C@H](C)C(=O)O[C@H]1C[C@H](O)C=C2C=C[C@H](C)[C@H](CC[C@@H](O)C[C@@H](O)CC(=O)O)[C@H]21 [Pravastatin] | 94.2 ± 9.4% | 93.3%
5 | Cc1cccn2c(=O)c(-c3nnn[nH]3)cnc12 [Pemirolast potassium] | 95.1 ± 1.1% | 98.7 ± 3.2%
6 | Cc1nccn1CC1CCc2c(c3ccccc3n2C)C1=O (configuration not stated) [Ondansetron Hydrochloride] | 106 ± 3.3% | 103.1 ± 0.94%
7 | CC(=O)NC[C@H]1CN(c2ccc(N3CCOCC3)c(F)c2)C(=O)O1 [Linezolid] | 110 ± 15% | 110 ± 12%
8 | COc1ccc2c(c1)c(CC(=O)OCC(=O)O)c(C)n2C(=O)c1ccc(Cl)cc1 [Acemetacin] | 84.5 ± 0.32% | 84.6 ± 1.6%
9 | CC[C@@]1(O)C(=O)OCc2c1cc1n(c2=O)Cc2cc3c(CN(C)C)c(O)ccc3nc2-1 [Topotecan] | 94.5 ± 2.4% | 88.7 ± 2.9%
10 | Nc1nnc(-c2cccc(Cl)c2Cl)c(N)n1 [Lamotrigine] | 110 ± 2.1% | 110 ± 0.52%
11 | Nc1nc(=O)[nH]cc1F [Flucytosine] | 97.8 ± 4.8% | 96.4 ± 1.8%
12 | Clc1cc(Cl)c(OCC#CI)cc1Cl [Haloprogin] | 6.04 ± 1.6% | 5.14 ± 0.73%
13 | Cc1cccc(C)c1NC(=O)CN1CCN(CCCC(c2ccc(F)cc2)c2ccc(F)cc2)CC1 [Lidoflazine] | 95.6 ± 1.3% | 114 ± 3%
14 | CC(=O)O[C@]1(C(C)=O)CC[C@H]2[C@@H]3C=C(C)C4=CC(=O)CC[C@]4(C)[C@H]3CC[C@@]21C [Megestrol acetate] | 93.2 ± 3% | 90.09 ± 0.32%
15 | CC(C)NC(=N)NC(=N)Nc1ccc(Cl)cc1 [Proguanil hydrochloride] | 110 ± 13% | 109 ± 9%
16 | COc1ccc2c3c1O[C@H]1C[C@@H](O)C=C[C@@]31CCN(C)C2 [Galanthamine hydrobromide] | 102 ± 4% | 99.8 ± 2.3%
17 | Cc1nnc(SCC2=C(C(=O)O)N3C(=O)[C@@H](NC(=O)Cn4cnnn4)[C@H]3SC2)s1 [Cefazolin sodium salt] | 102 ± 4.3% | 99.8 ± 1.9%
18 | O=c1[nH]c(=O)n([C@H]2C[C@H](O)[C@@H](CO)O2)cc1C(F)(F)F [Trifluridine] | 109.9 ± 0.95% | 106 ± 1.1%
19 | CCCCCCCCNC(C)C(O)c1ccc(SC(C)C)cc1 (configuration not stated) [Suloctidil] | 59.9 ± 14% | 96.6 ± 15%
20 | CC(=O)CC(c1ccc([N+](=O)[O-])cc1)c1c(O)c2ccccc2oc1=O (configuration not stated) [Acenocoumarol] | 101 ± 3.3% | 102 ± 2.2%
21 | S=c1[nH]cnc2nc[nH]c12 [Mercaptopurine] | 101 ± 1.8% | 99.6 ± 3.1%
22 | CN(Cc1ccc(C(C)(C)C)cc1)Cc1cccc2ccccc12 [Butenafine Hydrochloride] | 2.06 ± 1.4% | 1.99 ± 1.1%
23 | CC[N+](CC)(CC(=O)Nc1c(C)cccc1C)Cc1ccccc1 [Denatonium benzoate] | 102 ± 5.1% | 99.2 ± 2.9%
24 | COc1cc(NS(=O)(=O)c2ccc(N)cc2)nc(OC)n1 [Sulfadimethoxine] | 103 ± 1.6% | 103 ± 5.3%

Row | SMILES | growth yield (40 h) | growth yield (72 h)
25 | CC1(C)O[C@@H]2[C@@H](CO[C@@]3(COS(N)(=O)=O)OC(C)(C)O[C@@H]23)O1 [Topiramate] | 105 ± 1.8% | 102 ± 0.32%
26 | CN(C)c1cc(NC(=O)CNC(C)(C)C)c(O)c2c1C[C@H]1C[C@H]3[C@H](N(C)C)C(O)=C(C(N)=O)C(=O)[C@@]3(O)C(O)=C1C2=O [Tigecycline] | 89.4 ± 2.1% | 85.3 ± 1.8%
27 | Cc1cccc(Nc2ccncc2S(=O)(=O)NC(=O)NC(C)C)c1 [Torsemide] | 112 ± 8.7% | 109 ± 2.1%
28 | NC(=O)N1c2ccccc2CC(=O)c2ccccc21 [Oxcarbazepine] | 107 ± 4.6% | 106 ± 4.2%
29 | CC(C)Cn1cnc2c(N)nc3ccccc3c21 [Imiquimod] | 110 ± 1.4% | 104 ± 1.3%
30 | NCCc1cc[nH]n1 [Betazole hydrochloride] | 103 ± 6.5% | 101 ± 5.1%
31 | CCCNC(C)C(=O)Nc1c(C)csc1C(=O)OC (configuration not stated) [Articaine hydrochloride] | 98.6 ± 1.8% | 94.1 ± 3%
32 | COc1cccc(N(C)C(=S)Oc2ccc3c(c2)CCCC3)n1 [Liranaftate] | 0% | 0%
33 | Cc1c(NC(C)C)c(=O)n(-c2ccccc2)n1C [Isopyrin hydrochloride] | 100.9 ± 0.79% | 96.17 ± 0.52%
34 | CC(C[N+](C)(C)C)OC(N)=O (configuration not stated) [Bethanechol chloride] | 97.85 ± 0.95% | 97.22 ± 0.1%
35 | COc1ccc2c(c1)C(=O)N(CCc1ccc(S(=O)(=O)NC(=O)NC3CCCCC3)cc1)C(=O)C2(C)C [Gliquidone] | 112.6 ± 1.1% | 111 ± 0.21%
36 | NS(=O)(=O)Cc1noc2ccccc12 [Zonisamide] | 104.5 ± 0.95% | 98.8 ± 1.9%
37 | CN(C)CCN(Cc1ccc(Cl)cc1)c1ccccn1 [Chloropyramine hydrochloride] | 98.8 ± 1.9% | 96.2 ± 2.6%
38 | Cc1cn([C@H]2C[C@H](N=[N+]=[N-])[C@@H](CO)O2)c(=O)[nH]c1=O [Zidovudine, AZT] | 99.1 ± 1.3% | 101 ± 1.1%
39 | COc1ccc([C@@H]2Sc3ccccc3N(CCN(C)C)C(=O)[C@@H]2OC(C)=O)cc1 [Diltiazem hydrochloride] | 100 ± 2.9% | 99.6 ± 2.7%
40 | O=C(O)C[C@H](O)C[C@H](O)/C=C/c1c(C2CC2)nc2ccccc2c1-c1ccc(F)cc1 [Pitavastatin calcium] | 4.13% | 2.94%
41 | Cc1ccc(C)c(OCCCC(C)(C)C(=O)O)c1 [Gemfibrozil] | 81 ± 3.5% | 91.35 ± 0.1%
42 | O=C(CCCN1CCC(O)(c2ccc(Cl)cc2)CC1)c1ccc(F)cc1 [Haloperidol] | 104 ± 3.2% | 100 ± 2.7%
43 | CNCCC=C1c2ccccc2C=Cc2ccccc21 [Norcyclobenzaprine] | 97.7 ± 1.8% | 100 ± 2.3%
44 | NC(=O)OCC(O)COc1ccc(Cl)cc1 (configuration not stated) [Chlorphensin carbamate] | 100 ± 2.9% | 97.3 ± 2.9%
45 | COC(=O)CCc1ccc(OCC(O)CNC(C)C)cc1 (configuration not stated) [Esmolol hydrochloride] | 105 ± 4.6% | 100 ± 1.5%
46 | COCCOC(=O)C1=C(C)NC(C)=C(C(=O)OC(C)C)C1c1cccc([N+](=O)[O-])c1 (configuration not stated) [Nimodipine] | 95.3 ± 7.3% | 97.7 ± 9%
47 | CN1C(C(=O)Nc2ccccn2)=C(O)c2ccccc2S1(=O)=O [Piroxicam] | 86.9 ± 5.2% | 90.6 ± 4.8%
48 | C[C@]12CCC(=O)C=C1C=C[C@@H]1[C@@H]2CC[C@@]2(C)[C@H]1CC[C@@]21CCC(=O)O1 [Canrenone] | 91.3 ± 4.9% | 93.9 ± 3.5%

Row | SMILES | growth yield (40 h) | growth yield (72 h)
49 | O=C(c1ccc(F)cc1)C1CCN(CCn2c(=O)[nH]c3ccccc3c2=O)CC1 [Ketanserin tartrate hydrate] | 99.43 ± 0.95% | 100.9 ± 0.42%
50 | CCN(CC)C(=O)c1ccc(O)c(OC)c1 [Ethamivan] | 104 ± 3.2% | 103 ± 3.8%
51 | Cc1[nH]cnc1CN1CCc2c(c3ccccc3n2C)C1=O [Alosetron hydrochloride] | 95.94 ± 0.64% | 97.3 ± 1.3%
52 | CCCOc1ccc2[nH]c(NC(=O)OC)nc2c1 [Oxibendazol] | 16.4 ± 3.6% | 74.6 ± 3.5%
53 | CN(C)CCOC(c1ccccc1)c1ccccc1.Cn1c(=O)c2[nH]c(Cl)nc2n(C)c1=O [Dimenhydrinate] | 102 ± 2.1% | 103.2 ± 0.21%
54 | CN(CCCN1c2ccccc2CCc2ccccc21)CC(=O)c1ccc(Cl)cc1 [Lofepramine] | 66.1 ± 8.3% | 80.3 ± 3.4%
55 | O=C1NCC2(CCN(CCc3ccccc3)CC2)O1 [Fenspiride hydrochloride] | 101.3 ± 0.64% | 102.9 ± 0.73%
56 | Clc1ccc2c(c1)CCc1cccnc1C2=C1CCNCC1 [Desloratadine] | 106 ± 6.8% | 105 ± 4.8%
57 | CCCNC(=O)NS(=O)(=O)c1ccc(Cl)cc1 [Chlorpropamide] | 101% | 99.6 ± 2.7%
58 | CCN(CC)C(C)CN1c2ccccc2Sc2ccccc21 (configuration not stated) [Ethopropazine hydrochloride] | 107 ± 13% | 108 ± 10%
59 | CC(=O)O[C@]1(C(C)=O)CC[C@H]2[C@@H]3C=C(Cl)C4=CC(=O)CC[C@]4(C)[C@H]3CC[C@@]21C [Chlormadinone acetate] | 114 ± 1.6% | 111.9 ± 0.1%
60 | Cc1cc(O)c(C(=O)N[C@@H](C(=O)N[C@@H]2C(=O)N3C(C(=O)O)=C(CSc4nnnn4C)CS[C@H]23)c2ccc(O)cc2)cn1 [Cefpiramide] | 104 ± 7% | 102 ± 4.3%
61 | CO[C@H]1/C=C/O[C@@]2(C)Oc3c(C)c(O)c4c(O)c(c5c(nc6cc(C)ccn65)c4c3C2=O)NC(=O)/C(C)=C\C=C\[C@H](C)[C@H](O)[C@@H](C)[C@@H](O)[C@@H](C)[C@H](OC(C)=O)[C@@H]1C [Rifaximin] | 108 ± 2.5% | 101.9 ± 0.21%
62 | Clc1cccc(Cl)c1NC1=NCCN1 [Clonidine hydrochloride] | 102 ± 1.1% | 104 ± 2.6%
63 | O=C1[C@H]2CCCC[C@H]2C(=O)N1CCCCN1CCN(c2nsc3ccccc23)CC1 [Perospirone] | 99.1 ± 2.9% | 99.7 ± 3.7%
64 | Nc1nc2c(ncn2COC(CO)CO)c(=O)[nH]1 [Ganciclovir] | 106 ± 4.3% | 103 ± 4%
65 | NCCCCCC(=O)O [Aminocaproic acid] | 102 ± 2.2% | 95.4 ± 2.3%
66 | CN(C)C(=N)NC(=N)N [Metformin hydrochloride] | 105 ± 7.2% | 103 ± 5.3%
67 | CC=CC(=O)N(CC)c1ccccc1C [Crotamiton] | 93.6 ± 5.6% | 91.2 ± 3.8%
68 | CNCCc1ccccn1 [Betahistine mesylate] | 101 ± 1.4% | 103.2 ± 0.84%
69 | CN1CCN(CC(=O)N2c3ccccc3C(=O)Nc3cccnc32)CC1 [Pirenzepine dihydrochloride] | 102 ± 1.6% | 103.7 ± 0.73%
70 | CC(=O)N(CC(O)CO)c1c(I)c(C(=O)NCC(O)CO)c(I)c(C(=O)NCC(O)CO)c1I (configuration not stated) [Iohexol] | 103 ± 1.3% | 106 ± 1.1%
71 | CN(CCCCCCCCCCN(C)C(=O)Oc1cccc([N+](C)(C)C)c1)C(=O)Oc1cccc([N+](C)(C)C)c1 [Demecarium bromide] | 85.1 ± 2.5% | 101 ± 6.6%
